Source: patent US11707533B2, “Antibody-drug conjugate comprising antibody against human ROR1 and use for the same” (LegoChem Biosciences, Inc., priority 2019, dated 2023)
Substitutions are numbered along the chain they refer to. Each block holds one molecule with its values, some of them ahead of it.

Tests used:
[1] = biological target: T1, recombinant human ROR1-His (Homo sapiens, UniProt Q01973); assay: Octet measurement of affinity of anti-ROR1 IgG antibody to ROR1; type: binding; settings: 1:1 fitting, 30° C.
T1 construct: purchased Sino Biological 13968-H08H
T1 sequence (Q01973 30-406 limits assumed): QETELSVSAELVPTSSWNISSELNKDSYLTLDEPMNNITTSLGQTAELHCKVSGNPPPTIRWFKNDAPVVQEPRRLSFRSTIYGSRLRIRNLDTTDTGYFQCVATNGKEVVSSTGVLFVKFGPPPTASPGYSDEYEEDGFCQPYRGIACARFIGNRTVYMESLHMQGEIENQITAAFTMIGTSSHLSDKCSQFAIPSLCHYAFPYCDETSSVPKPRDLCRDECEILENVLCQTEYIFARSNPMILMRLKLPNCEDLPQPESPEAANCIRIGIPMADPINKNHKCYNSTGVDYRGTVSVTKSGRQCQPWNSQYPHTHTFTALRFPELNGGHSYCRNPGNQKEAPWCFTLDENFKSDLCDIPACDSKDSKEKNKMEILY
Method: A 96-well black microplate (greiner bio one) was mounted on a biosensor tray case, and 200 ? 10×KB or DW was added to each of 8 wells. Then Anti Penta His biosensors or 8 AR2G biosensors (ForteBio, USA) were inserted to hydrate for 10 minutes. 600 ? of the assay samples were diluted 2-fold or 3-fold to the appropriate assay concentrations, using 1×KB or 10×KB to 30 to 0.021 nM. To immobilize the antigen, recombinant human ROR1-His (Sino Biological, 13968-H08H) was diluted to 1 ? /ML with 10×KB or Sodium Acetate pH5 buffer. Immobilization was fixed at a threshold of 0.3 nm in the loading step. The association assay was carried out for 3 to 10 minutes, and the dissociation assay was carried out for 20 minutes. According to the Octet program template, the buffer was placed in a new 96-well black microplate according to order. As Baseline1, 200 ? 10×KB or DW was placed. Then 200 ? each of 1 ? /mL of the antigen to be loaded, the ROR1-HIS protein, was added. As Baseline2, 200 ? 10×KB or 1×KB was placed. Then to each well 30 to 0.021 nM of the diluted antibody and 200 ? each of 10×KB buffer or 1×KB corresponding to a reference blank was added. The temperature of the test plate was fixed at 30° C. After all of the samples were introduced, the equipment was started, and after the assay was completed, results were uploaded to the Octet Analysis 90 software, with KD values analyzed through 1:1 fitting. By obtaining KD values through the Octet assay method, it was confirmed that the anti-ROR1 antibody had strong binding potential to ROR1 antigen.

[2] = tested on: human mantle cell lymphoma cell line JeKo-1; assay: Cancer growth suppression efficacy of anti-ROR1 IgG antibody in mouse tumor xenograft model; type: in vivo; settings: Day 16; 10 mg/kg peritoneally twice a week, 5 administrations; JeKo-1 xenograft in SCID mice
Method: Human cancer xenograft mice were prepared by transplanting 1×10^7 cells/head of the ROR1-expressing human mantle cell lymphoma cell line JeKo-1 to severe combined immunodeficiency mice (SCID). After xenograft, when tumor size reached 170 mm^3 on average (Day 1), the mice were divided into groups, and 5 types of anti-ROR-1 antibody were peritoneally injected into the mice using a 1 mL syringe twice a week at 10 mg/kg for a total of 5 administrations (Days 1, 4, 7, 10 and 14). The negative control group was peritoneally administered 10 mg/kg each of human IgG1 (InVivoPlus human IgG1 isotype control, BioXCell, BP0297) having a structure similar to that of ROR-1 antibody twice a week for a total of 5 administrations. The size of the tumors grafted to the mice and the weight of the mice were measured immediately before initial administration (Day 1), immediately before administration on each administration date thereafter, and at two days after final administration (Day 16).

[3] = tested on: ROR1 over-expressing cell line JeKo-1; assay: Induction of auto-active cell death (Annexin V / PI, FACS) in JeKo-1; type: cell-based, human; settings: for induction of auto-active cell death (dyeing by Annexin V and PI): antibody cross-linked (multimerized) by anti-human Fc antibody
Method: To this end, the ROR1 over-expressing cell line JeKo-1 was centrifuged to remove the serum-containing medium. After washing once with PBS, 5×10^6 cells were seeded in each well of a 6-well plate using serum-free RPMI1640 medium. 100 ? /mL of the anti-ROR1 antibody according to the present invention and 300 ? /ml of anti-human Fc antibody (Thermo Fisher, 31125) were placed at a 1:1 ratio in an equivalent tube, an reacted for 10 minutes at room temperature so that the anti-ROR1 antibody was cross-linked by the anti-human Fc antibody. 150 ? each of the mixtures was placed in the wells containing 15 ml medium so that the final amount of antibody treated was 10 ? /mL for ROR1 antibody, and 30 ? /mL for anti-human Fc antibody, then reacted by culturing for 24 hours at 5% CO2 and 37° C.
Next, to confirm whether or not whether or not the ROR1 antibody alone and the cross-linked anti-ROR1 antibody had the capacity to induce auto-active cell death, the cells of each well were collected and washed once with PBS. Thereafter, each group was reacted with the auto-active cell death marker Annexin V and the cell death marker PI, and the degree to which the groups were dyed was observed through FACS analysis.

[4] = biological target: T2, recombinant human ROR1-Fc (Homo sapiens, UniProt Q01973); assay: Monoclonal phage antibody (scFv) screening ELISA on ROR1-Fc; type: binding; settings: monoclonal phage scFv supernatant
T2 construct: made in house; host or cells: HEK 293E
T2 sequence (Q01973 30-406): as the sequence (Q01973 30-406 limits assumed) above
Method: Thereafter, the ELISA method was used as follows to select clones expressing monoclonal soluble scFv binding to ROR1-Fc antigen (Steinberger Rader and Barbas III 2000 Phage display vectors In: Phage Display Laboratory Manual 1sted Cold Spring Harbor Laboratory Press NY USA pp 119-1112). Specifically, 100 ng per well of recombinant human ROR1-Fc prepared in Embodiment 1-1 or FBMA-Fc was placed in a 96-well microtiter plate (Nunc-Immuno Plate, NUNC, USA), which was coated overnight at 4° C. BCMA-Fc is the protein used as a negative control, a recombinant protein where the extracellular domain of human BCMA protein is linked to human Fc. 200 μL each of 3% BSA was placed in each well, and blocked for 2 hours at 37° C.
The monoclonal phage supernatant was prepared by mixing 1:1 with 3% BSA, and 100 μL each of this mixture was loaded into the wells and reacted for 2 hours at 37° C. After washing 5 times with 300 μL PBST, anti-HA HRP binding antibody was added, reacted for 1 hour at 37° C., then washed 5 times with PBST. 100 μL TMB (Tetramethylbenzidine, Sigma, T0440) was added for color development, and then 50 μL 1N H2SO4 was added to stop the reaction. Absorbance was measured at 450 nm and 650 nm, and clones where the absorbance at 450 nm and 650 nm was 10 or higher when coated with 1 ? /mL ROR1 were screened (FIG. 1)

[5] = biological target: T3, cell surface-expressed ROR1 (JeKo-1 cell line) (Homo sapiens, UniProt Q01973); assay: Monoclonal phage antibody (scFv) flow cytometry on JeKo-1; type: binding; settings: monoclonal scFv supernatant
T3 construct: reacted with a cell line (JeKo-1) overexpressing ROR1; endogenous in cells; host or cells: JeKo-1
T3 sequence (Q01973 30-937): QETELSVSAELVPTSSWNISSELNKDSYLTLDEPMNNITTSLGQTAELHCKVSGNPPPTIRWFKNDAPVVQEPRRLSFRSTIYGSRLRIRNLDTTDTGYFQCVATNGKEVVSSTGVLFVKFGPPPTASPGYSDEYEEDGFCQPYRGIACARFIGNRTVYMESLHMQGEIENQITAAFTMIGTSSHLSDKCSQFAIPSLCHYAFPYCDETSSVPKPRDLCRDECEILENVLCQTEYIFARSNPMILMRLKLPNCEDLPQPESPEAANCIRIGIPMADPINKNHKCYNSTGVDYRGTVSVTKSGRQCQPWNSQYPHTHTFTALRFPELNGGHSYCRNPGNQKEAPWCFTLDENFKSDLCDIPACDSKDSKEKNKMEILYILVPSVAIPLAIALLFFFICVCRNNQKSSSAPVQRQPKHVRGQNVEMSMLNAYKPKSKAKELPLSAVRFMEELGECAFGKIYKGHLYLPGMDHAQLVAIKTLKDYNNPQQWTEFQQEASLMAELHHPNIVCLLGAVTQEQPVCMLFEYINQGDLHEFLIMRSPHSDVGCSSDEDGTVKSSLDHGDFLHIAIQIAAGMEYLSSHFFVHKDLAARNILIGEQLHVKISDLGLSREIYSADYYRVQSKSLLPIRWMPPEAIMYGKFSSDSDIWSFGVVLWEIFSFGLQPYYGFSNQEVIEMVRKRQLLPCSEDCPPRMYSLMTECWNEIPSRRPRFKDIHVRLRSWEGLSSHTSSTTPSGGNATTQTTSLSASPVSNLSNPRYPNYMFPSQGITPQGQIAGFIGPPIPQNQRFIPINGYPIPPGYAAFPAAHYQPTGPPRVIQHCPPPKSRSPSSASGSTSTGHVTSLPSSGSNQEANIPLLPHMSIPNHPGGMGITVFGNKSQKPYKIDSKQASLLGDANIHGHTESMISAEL
Method: Next, flow cytometry was used to screen clones binding to cell lines expressing ROR1. Specifically, 100 ? of the monoclonal scFv supernatant was reacted with a cell line (JeKo-1) overexpressing ROR1, then washed two times with PBS. After reacting with anti-HA-FITC antibody (Sigma, H7411) at 4° C. for 30 minutes, and washing twice with PBS then suspending in 200 ? PBS, a FACSCalibur flow cytometer (BD Bioscience) was used to screen clones binding to the JeKo-1 cell line (FIG. 2)

koff [1]: 0.000116 s⁻¹
kon [1]: 1.81e+06 M⁻¹ s⁻¹
binding to recombinant human ROR1 protein [4]: binding
binding to cell lines expressing ROR1 [5]: binding
B1: AB4: anti-ROR1 antibody clone, VH SEQ ID NO 43, VL SEQ ID NO 51; IgG chains SEQ ID NOs 59 and 67 (antibody)
heavy: EVQLLESGGGLVQPGGSLRLSCAASGFTFSSYDMSWVRQAPGKGLEWVSWISPDSGSIYYADSVKGRFTISRDNSKNTLYLQMNSLRAEDTAVYYCARPTGRFDYWGQGTLVTVSS[human IgG1 constant region not printed]
light: QSVLTQPPSASGTPGQRVTISCSGSSSNIGNNNVNWYQQLPGTAPKLLIYYDNKRPSGVPDRFSGSKSGTSASLAISGLRSEDEADYYCGTWDASLSGYVFGGGTKLTVLGQPKAAPSVTLFPPSSEELQANKATLVCLISDFYPGAVTVAWKADSSPVKAGVETTTPSKQSNNKYAASSYLSLTPEQWKSHRSYSCQVTHEGSTVEKTVAPAECS
% tumor growth inhibition (% TGI) compared to the human IgG1 antibody (HuIgG1) negative control [2]: 361%
induction of auto-active cell death (dyeing by Annexin V and PI) [3]: increased over the control group
increase in dyeing by the auto-active cell death marker Annexin V over the control ([3]; antibody cross-linked by anti-human Fc antibody, 24 hours): 10%

koff [1]: 0.000551 s⁻¹
kon [1]: 731000 M⁻¹ s⁻¹
binding to recombinant human ROR1 protein [4]: binding
binding to cell lines expressing ROR1 [5]: binding
B2: CC9: anti-ROR1 antibody clone, VH SEQ ID NO 47, VL SEQ ID NO 55; IgG chains SEQ ID NOs 63 and 71 (antibody)
heavy: EVQLLESGGGLVQPGGSLRLSCAASGFTFSSYDMSWVRQAPGKGLEWVSGISHGSGNKYYADSVKGRFTISRDNSKNTLYLQMNSLRAEDTAVYYCAKRLSLRRRPSYYSDNAMDVWGQGTLVTVSS[human IgG1 constant region not printed]
light: B1 light with S23T, N33A, N53S, K54N, T91A, A94D
% tumor growth inhibition (% TGI) compared to the human IgG1 antibody (HuIgG1) negative control [2]: 294%

koff [1]: 0.000231 s⁻¹
kon [1]: 2.47e+06 M⁻¹ s⁻¹
binding to recombinant human ROR1 protein [4]: binding
binding to cell lines expressing ROR1 [5]: binding
B3: BA6: anti-ROR1 antibody clone, VH SEQ ID NO 46, VL SEQ ID NO 54; IgG chains SEQ ID NOs 62 and 70 (antibody)
heavy: EVQLLESGGGLVQPGGSLRLSCAASGFTFSNYDMSWVRQAPGKGLEWVSAIYHSGSSKYYADSVKGRFTISRDNSKNTLYLQMNSLRAEDTAVYYCARGGNGAWDTGFDYWGQGTLVTVSS[human IgG1 constant region not printed]
light: B1 light with N31S, N33D, N35S, K54N, T91A, A94D
% tumor growth inhibition (% TGI) compared to the human IgG1 antibody (HuIgG1) negative control [2]: 317%
induction of auto-active cell death (dyeing by Annexin V and PI) [3]: did not induce auto-active cell death
